# Several values for one entry are separate records, joined by “and”; a condition that tells them apart may be missing. Equal values may be shown once. Among all 360,000 compounds or so, about 11,000 (3.1%) were called active. The inconclusive results got no clear call from the source; some entries with a clear call stand among them for comparison. Calls follow the shape of the dose curve; as a rule, active = well fitted inhibition curve with a large enough effect; inconclusive = small, poorly fitted or top-dose-only effect; inactive = no such curve, though single readings can be large or run the other way. Where the call is inconclusive, the potency comes from a doubtful curve fit.
# Target: Schistosoma mansoni thioredoxin glutathione reductase (TGR) (UniProt Q962Y6)
# Assay: qHTS Assay for the Inhibitors of Schistosoma Mansoni Peroxiredoxins; also: nearly all actives have a fitted effect of over 60% in size
# Details: purified TGR, DTNB reduction, TNB absorbance 405 nm; series mostly up to 114 µM
# Outline: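 First, TGR (20 nM dispensed) and NADPH were mixed with compound. Second, a 15 min room-temperature incubation followed. Third, further NADPH and then DTNB were added to start the reaction. Finally, TNB absorbance was monitored kinetically.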
# Potency is read from the fitted curve at half-maximal effect; tags tell the direction and shape of the fitted curve.
row,Compound,Potency
1,C[C@@H]1C[C@H](O)c2cc(Cl)ccc2N1,active: 39.8 µM
2,COc1cccc(-c2nc(CS(=O)(=O)CC(=O)NCC(C)c3ccccc3)c(C)o2)c1 (configuration not stated),"inconclusive: 3.16 µM [inhibitor, full curve, poor fit]"
3,Cc1ccnc(-n2c(C)cc(/C=C3\C(=O)NC(=S)N(C)C3=O)c2C)c1,"inconclusive: 22.4 µM [inhibitor, partial curve, poor fit]"
4,O=C(NN=C1CCCC1)c1ccccc1O,inactive
5,COc1ccc2c(c1)cc(C)c1nnc(SCC(=O)N3CCN(C(=O)c4ccco4)CC3)n12,"inconclusive: 89.1 µM [inhibitor, single point]"
6,CCCS(=O)(=O)c1c(S(=O)(=O)CCC)c2ccccn2c1C(=O)OC,active: 28.2 µM
7,COCCOC(=O)c1sc2nc[nH]c(=O)c2c1C,inactive
8,COc1ccc(NC(=O)CSc2nc(-c3ccco3)nc3cc(=O)[nH]n23)cc1,active: 10 µM
9,C=CCc1c(OC)ccc2c1c(S(=O)(=O)c1ccc(C)cc1)cn2COC,inactive
10,O=S1(=O)c2ccccc2N=NN1Cc1ccc(Cl)c(Cl)c1,active: 3.98 µM
11,CCCOc1ccc(C2c3c(oc4cc(C)c(C)cc4c3=O)C(=O)N2CCCN2CCOCC2)cc1 (configuration not stated),"inconclusive: 44.7 µM [inhibitor, partial curve]"
12,COc1cccc(C(=O)NN2C(=O)C3C4C=CC(O4)C3C2=O)c1 (configuration not stated),active: 20 µM
13,Cc1cc(C)n(C(=O)CNC(=O)c2ccc(Cl)cc2Cl)n1,inactive
14,CCCSCC(=O)Nc1ncc2c(n1)-c1ccccc1CC2,"inconclusive: 56.2 µM [inhibitor, partial curve]"
15,CC(C)c1ccc(NCCC(=O)c2cccs2)cc1,active: 3.16 µM
16,Cc1cccc(NC(=O)c2sc3nc(-c4ccccc4)cn3c2C)n1,"inconclusive: 3.98 µM [inhibitor, single point]"
17,Cc1cccc(NC(=O)CSc2nccn2-c2cccc(Cl)c2)c1C,inactive
18,Cc1nn(Cc2ccccc2Cl)c2sc(C(=O)Nc3ccccc3N3CCOCC3)cc12,inactive
19,COc1ccc(C2NC(=O)N(C)C3=C2C(=O)N(c2ccc(F)cc2)C3)cc1 (configuration not stated),inactive
20,O=C(O)c1ccc(NC(=S)NC(=O)c2ccc(-c3ccccc3)cc2)cc1,"inconclusive: 12.6 µM [inhibitor, full curve]"
21,CCOC(=O)CSc1ncc(-c2ccccc2)cn1,inactive
22,Cc1ccc(C(O)(C(=O)NNc2ccc3ccccc3n2)c2ccc(C)cc2)cc1,"inconclusive: 35.5 µM [inhibitor, single point]"
23,O=c1[nH]c(=O)n(Cc2ccc(F)cc2)c(O)c1/C=N/Nc1ccccc1,"inconclusive: 44.7 µM [inhibitor, partial curve]"
24,CCCCNC(=O)COc1ccccc1[N+](=O)[O-],inactive

row,Compound,Potency
1,O=C(Nc1nnc(-c2ccco2)o1)c1ccc(N2C(=O)CCC2=O)cc1,inactive
2,COC(=O)/C(=C/c1cn(C(C)=O)c2ccccc12)[N+](=O)[O-],active: 3.55 µM
3,N#Cc1ccc(C(=O)N2CCN(C(=O)C3CCCO3)CC2)cc1 (configuration not stated),"inconclusive: 56.2 µM [inhibitor, partial curve]"
4,CCOC(=O)C1=C(CN2CCN(c3cc(C)ccc3C)CC2)NC(=O)NC1c1ccc(Cl)cc1 (configuration not stated),"inconclusive: 56.2 µM [inhibitor, partial curve]"
5,CC(C)N(CCC(=O)c1ccc2ccccc2c1)Cc1ccccc1,active: 0.126 µM
6,CCn1ccc2cc(S(=O)(=O)N3CCCN(C(=O)NCCOC)CC3)ccc21,"inconclusive: 79.4 µM [inhibitor, single point]"
7,COC(=O)c1cccc(N(C(=O)CNC(=O)c2cccs2)C(C(=O)NCC2CCCO2)c2ccc(OC)c(OC)c2)c1 (configuration not stated),"inconclusive: 39.8 µM [inhibitor, single point]"
8,OCCC1CN(Cc2ccccc2-c2ccco2)CCN1Cc1ccccc1 (configuration not stated),"inconclusive: 39.8 µM [inhibitor, partial curve]"
9,O=C(O)C=C(Br)Br,active: 50.1 µM
10,S=C(NC1CCCCC1)N1CCn2cccc2C1c1ccncc1 (configuration not stated),"inconclusive: 63.1 µM [inhibitor, partial curve]"
11,CCOC(=O)C1=C(C)NC(=S)NC1c1ccco1 (configuration not stated),"inconclusive: 0.891 µM [inhibitor, full curve, poor fit]"
12,C=CCNC(=S)N/N=C(\C)c1ccccn1,"inconclusive: 39.8 µM [inhibitor, partial curve]"
13,CCOc1ccc(S(=O)(=O)Nc2ccccc2C(=O)NCc2ccco2)cc1,"inconclusive: 44.7 µM [inhibitor, partial curve]"
14,CCC(=O)NC(=S)NNC(=O)c1ccc([N+](=O)[O-])cc1,inactive
15,O=C(CSCc1c(F)cccc1Cl)NCCc1ccccc1,inactive
16,Cc1ccc(S(=O)(=O)N2CC(C(=O)O)=CC[C@H]2c2ccc3c(c2)OCO3)cc1,"inconclusive: 50.1 µM [inhibitor, partial curve]"
17,O=C1CCCC/C1=C\Nc1ccc(O)cc1,"inconclusive: 39.8 µM [inhibitor, partial curve]"
18,CCc1ccccc1Nc1nc2cc(Cl)c(Cl)cc2nc1-n1nc(C)cc1C,inactive
19,COc1ccc2oc(C(=O)N3CCc4ccccc43)c(C)c2c1,"inconclusive: 35.5 µM [inhibitor, partial curve]"
20,O=C(COc1ccccc1)NC1C(=O)N2C(C(=O)O)=C(Cl)CSC12 (configuration not stated),"inconclusive: 20 µM [inhibitor, partial curve]"
21,COc1ccc([N+](=O)[O-])cc1NC(=O)CCS(=O)(=O)c1ccc(Br)cc1,"inconclusive: 35.5 µM [inhibitor, full curve, poor fit]"
22,COC(=O)c1cc2occc2n1Cc1cccc(C)c1,"inconclusive: 50.1 µM [inhibitor, partial curve, poor fit] and inconclusive: 39.8 µM [inhibitor, partial curve]"
23,Cc1ccc(NC(=O)CSC(C)C(=O)OCC(=O)N2CCN(C(=O)c3ccco3)CC2)cc1 (configuration not stated),active: 50.1 µM
